In PubChem BioAssay (NCI):
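Step 1: Grow cells in 96-well plates. Step 2: Expose to compound for 48 hours at 5 concentrations. Step 3: Interpolate endpoints linearly; if unreached, use highest concentration. The concentration for 50% growth inhibition is given as GI50. TGI marks complete inhibition of growth.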

Test system: NCI-H322M lung
Assay: inhibition of tumour cell growth, NCI panel, 48 h

| SMILES | TGI [µM] | GI50 [µM] |
| --- | --- | --- |
| CSC(=S)Nc1cc(C)ccn1 | > 100 |  |
| CCN1C(=O)N(CC)C2C1NN=c1s/c(=C\c3ccc([N+](=O)[O-])cc3)c(=O)n12 (stereo unspecified) | > 100 | 0.73 |
| O=C(Nc1ccc(Cl)cc1)C(=O)C1=C(O)c2ccccc2OC1 | > 100 |  |
| Cc1cc(C)c2c(c1C)CN1CN2Cc2c(C)c(C)cc(C)c21 | > 100 |  |
| O=C1NC(c2ccccc2)C1N(Cc1ccccc1)Cc1ccccc1 (stereo unspecified) | > 100 |  |
| N=C(N)c1ccc(-c2ccc(-c3ccccc3)o2)cc1 | 4.59 | 1.99 |
| COc1ccc2c(c1)CC[C@@H]1C2CC[C@]2(C)C(=O)N(C)C(=O)CC12 (stereo partly specified) | > 100 |  |
| Cn1cc(-c2csc(-c3cn(C)c4ncccc34)n2)c2ccccc21 | > 100 | 0.86 |
| O=C1c2cccnc2-c2nc(-c3ccccc3)cc3c2c1nc1ccccc13 | 26.6 | 13.1 |
| Oc1ccc(-c2nc(-c3ccc(F)cc3)c(-c3ccncc3)[nH]2)cc1 | 71.5 | 19.6 |
| Cc1nc(N=C(N)N)nc2ccc3ccccc3c12 | 4.6 | 1.48 |
| COC(=O)C(NC(=O)C12CCC(C)(C(=O)O1)C2(C)C)c1cc(C(C)(C)C)c(O)c(C(C)(C)C)c1 (stereo unspecified) | > 100 |  |
| Nc1nc(SCC(=O)c2ccccc2)nc2nc3c(c(-c4ccccc4)c12)CCCC3 | 85.2 |  |
| CC(=O)Nc1ccc2c(c1)C(=Nc1ccc(C(=O)O)cc1)c1ccccc1-2 | > 100 |  |
| Cc1[nH]c2ncn(N)c(=N)c2c1Cc1ccccc1 | > 100 |  |
| CN(C)c1ccc(N=C(C#N)c2nc(N)nc(N3CCOCC3)n2)cc1 | > 100 | 41.8 |
| COc1cc(C2c3cc4c(cc3[C@@H](OCCN)[C@H]3COC(=O)C23)OCO4)cc(OC)c1O (stereo partly specified) | 28.6 |  |
| c1cc(-c2ccc(Oc3ccc(-c4ccncc4)cc3)cc2)ccn1 | > 100 |  |
| N/C(=N/O)c1cn(C2OC(CO)C(O)C2O)c2ncnc(NO)c12 (stereo unspecified) | > 83 |  |
| O=[N+]([O-])c1ccc(N=Nc2c(O)[nH]c3ccc(Br)cc23)c([N+](=O)[O-])c1 | 32.4 |  |
| Nc1ccc(C(=O)O)c2[nH]c3ccccc3c(=O)c12 | > 100 |  |
| O=C1Nc2ccccc2/C1=C\c1c(Cl)[nH]c2ccccc12 | 9.37 |  |
| O=C1/C(=C/c2ccccc2Cl)COc2ccccc21 | 40.1 |  |
| COC(=O)C12C3C=CC(O3)C1C1C=CC2O1 (stereo unspecified) | > 100 |  |
| CC1=C(C(=O)Nc2cc(F)c(F)cc2F)C(c2cccc([N+](=O)[O-])c2)C(C(=O)Nc2ccccc2C(F)(F)F)=C(C)N1 (stereo unspecified) | 69.1 |  |

| SMILES | TGI [µM] | GI50 [µM] |
| --- | --- | --- |
| COC(=O)CC(CC(=O)C(=O)OC)C(=O)OC (stereo unspecified) | > 100 |  |
| Nc1nc(Cl)cc(NCC2(CO)CC(O)C2)n1 (stereo unspecified) | > 100 |  |
| O=C(O)c1ccccc1/C=C1\Cc2ccc3c(c2C1=O)CCCC3 | > 100 |  |
| COc1ccc2[nH]c3c(c2c1)CCc1ccccc1-3 | > 100 |  |
| NC(=O)OCc1c(O)c2c(c(O)c1COC(N)=O)C(=O)C=CC2=O | > 100 |  |
| C/C=C(\C)C(=O)O[C@@H]1C=CC(=O)O[C@H]1COC(=O)[C@H](C)O | 47.5 | 23.8 |
| O=C(NCCS(=O)(=O)N1C(=O)C2CCCN2C(=O)[C@@H]1Cc1ccccc1)OCc1ccccc1 (stereo partly specified) | > 100 |  |
| COC(=O)/C=C1/OC(c2ccccc2)=CC1=O | > 100 |  |
| O=C(/C=C/c1cccnc1)/C=C/c1cccnc1 | 18.9 | 5.58 |
| CCCCC[C@H]1CC=CC(=O)O1 | 87 |  |
| CN(Cc1cnc2nc(N)nc(N)c2n1)c1ccc(C(=O)NC2CCCCC2)cc1 | > 100 |  |
| Cc1ccc(CCCC(=O)O)cc1C | > 100 |  |
| C[CH2][Sn]([CH2]C)([O]C(=O)c1cc(OC)c(OC)c(OC)c1)[O][Sn]([CH2]C)([CH2]C)[O]C(=O)c1cc(OC)c(OC)c(OC)c1 | > 100 | > 100 |
| O=[N+]([O-])c1ccc2nc(/C=C(\O)c3ccccc3)c(/C=C(\O)c3ccc(Cl)cc3)nc2c1 | > 100 |  |
| OCCC#Cc1ccccc1C#Cc1ccccc1 | 25.5 | 12.8 |
| Cn1c(=O)c2c(nc3n2C(CCl)CO3)n(C)c1=O (stereo unspecified) | > 100 |  |
| COc1cc([C@@H]2c3cc4c(cc3[C@@H](N=Cc3ccc(C(=O)O[C@H]5C[C@H]6OC[C@@]6(OC(C)=O)[C@H]6[C@H](OC(=O)c7ccccc7)[C@]7(O)C[C@H](OC(=O)[C@H](OC(=O)c8ccc(C=N[C@@H]9c%10cc%11c(cc%10[C@@H](c%10cc(OC)c(O)c(OC)c%10)[C@H]%10C(=O)OC[C@@H]%109)OCO%11)cc8)[C@@H](NC(=O)c8ccccc8)c8ccccc8)C(C)=C([C@@H](OC(C)=O)C(=O)[C@]56C)C7(C)C)cc3)C3COC(=O)C32)OCO4)cc(C)c1O (stereo partly specified) | > 31.2 |  |
| CC(=O)C(CN1CCOCC1)C(c1ccccc1)c1c(O)c2ccccc2oc1=O (stereo unspecified) | > 100 |  |
| COC(=O)[C@@H](COC(=O)/C=C/c1ccc(OC(C)=O)c(OC(C)=O)c1)NC(=O)/C=C/c1ccc(OC(C)=O)c(OC(C)=O)c1 | > 100 |  |
| CC(=O)/C(=C\n1c(=S)[nH]c2ccc([N+](=O)[O-])cc21)C(=O)Nc1ccccc1C | > 100 |  |
| Clc1ccc(C2=NN(c3ccccc3)C3c4cc(Br)ccc4OCC23)cc1 (stereo unspecified) | > 100 |  |
| C=CCSC1=N/C(=C\c2ccco2)C(=O)N1CC=C | > 100 |  |
| O=c1[nH]nc(Cc2ccc(Cl)cc2)n1Nc1ccccc1 | > 100 |  |
| c1ncc(C23C4C5C6C4C2C6C53)[nH]1 (stereo unspecified) | > 100 |  |
| CC(=O)Nc1ccccc1S(=O)(=O)c1c(-c2c(C)c(Cl)c(C)c(Cl)c2C)noc1C | > 100 |  |
